Experimental data as given in the supplement of paper PMC8728848.
The other results are listed elsewhere or left out.

Key:
Test in all cases: glycan array binding signal (z-score within array); higher = stronger binding
Settings in all cases: glycan notation: IUPAC condensed, linker removed
GlcNAc(b1-3)Gal(b1-4)Glc = molecular target: GlcNAc(b1-3)Gal(b1-4)Glc
Procedure, shortened: (§1)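 Glycan array data were curated from 3228 arrays in the Consortium for Functional Glycomics database and kept only where the protein sequence was available. Glycan names were converted to IUPAC-condensed notation, and columns mapping to the same glycan were averaged. The binding signal is a within-array Z-score, averaged across arrays of the same protein sequence at different concentrations or buffers and across linkers. Negative Z-scores can be read as non-binding.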

[1] = molecular target: GlcNAc(b1-3)Gal(b1-4)GlcNAc
Procedure, shortened: as §1

[2] = molecular target: GlcNAc(b1-3)Gal(b1-4)GlcNAc(b1-2)Man(a1-3)[GlcNAc(b1-3)Gal(b1-4)GlcNAc(b1-2)Man(a1-6)]Man(b1-4)GlcNAc(b1-4)GlcNAc
Procedure, shortened: as §1

[3] = molecular target: GlcNAc(b1-3)Gal(b1-4)GlcNAc(b1-2)Man(a1-3)[GlcNAc(b1-3)Gal(b1-4)GlcNAc(b1-2)Man(a1-6)]Man(b1-4)GlcNAc(b1-4)[Fuc(a1-6)]GlcNAc
Procedure, shortened: as §1

[4] = molecular target: GlcNAc(b1-3)Gal(b1-4)GlcNAc(b1-2)[GlcNAc(b1-3)Gal(b1-4)GlcNAc(b1-6)]Man(a1-6)[GlcNAc(b1-3)Gal(b1-4)GlcNAc(b1-2)Man(a1-3)]Man(b1-4)GlcNAc(b1-4)GlcNAc
Procedure, shortened: as §1

[5] = molecular target: GlcNAc(b1-3)Gal(b1-4)GlcNAc(b1-3)Gal(b1-4)GlcNAc
Procedure, shortened: as §1

[6] = molecular target: GlcNAc(b1-3)Gal(b1-4)GlcNAc(b1-3)Gal(b1-4)GlcNAc(b1-2)Man(a1-3)[GlcNAc(b1-3)Gal(b1-4)GlcNAc(b1-3)Gal(b1-4)GlcNAc(b1-2)Man(a1-6)]Man(b1-4)GlcNAc(b1-4)GlcNAc
Procedure, shortened: as §1

[7] = molecular target: GlcNAc(b1-3)Gal(b1-4)GlcNAc(b1-3)Gal(b1-4)GlcNAc(b1-2)Man(a1-3)[GlcNAc(b1-3)Gal(b1-4)GlcNAc(b1-3)Gal(b1-4)GlcNAc(b1-2)Man(a1-6)]Man(b1-4)GlcNAc(b1-4)[Fuc(a1-6)]GlcNAc
Procedure, shortened: as §1

[8] = molecular target: GlcNAc(b1-3)Gal(b1-4)GlcNAc(b1-3)Gal(b1-4)GlcNAc(b1-2)[GlcNAc(b1-3)Gal(b1-4)GlcNAc(b1-3)Gal(b1-4)GlcNAc(b1-6)]Man(a1-6)[GlcNAc(b1-3)Gal(b1-4)GlcNAc(b1-3)Gal(b1-4)GlcNAc(b1-2)Man(a1-3)]Man(b1-4)GlcNAc(b1-4)[Fuc(a1-6)]GlcNAc
Procedure, shortened: as §1

[9] = molecular target: GlcNAc(b1-3)Gal(b1-4)GlcNAc(b1-3)Gal(b1-4)GlcNAc(b1-3)Gal(b1-4)GlcNAc(b1-2)Man(a1-3)[GlcNAc(b1-3)Gal(b1-4)GlcNAc(b1-3)Gal(b1-4)GlcNAc(b1-3)Gal(b1-4)GlcNAc(b1-2)Man(a1-6)]Man(b1-4)GlcNAc(b1-4)GlcNAc
Procedure, shortened: as §1

[10] = molecular target: GlcNAc(b1-3)Gal(b1-4)GlcNAc(b1-3)Gal(b1-4)GlcNAc(b1-3)Gal(b1-4)GlcNAc(b1-2)Man(a1-3)[GlcNAc(b1-3)Gal(b1-4)GlcNAc(b1-3)Gal(b1-4)GlcNAc(b1-3)Gal(b1-4)GlcNAc(b1-2)Man(a1-6)]Man(b1-4)GlcNAc(b1-4)[Fuc(a1-6)]GlcNAc
Procedure, shortened: as §1

[11] = molecular target: GlcNAc(b1-3)Gal(b1-4)GlcNAc(b1-3)Gal(b1-4)GlcNAc(b1-3)Gal(b1-4)GlcNAc(b1-2)[GlcNAc(b1-3)Gal(b1-4)GlcNAc(b1-3)Gal(b1-4)GlcNAc(b1-3)Gal(b1-4)GlcNAc(b1-6)]Man(a1-6)[GlcNAc(b1-3)Gal(b1-4)GlcNAc(b1-3)Gal(b1-4)GlcNAc(b1-3)Gal(b1-4)GlcNAc(b1-2)Man(a1-3)]Man(b1-4)GlcNAc(b1-4)[Fuc(a1-6)]GlcNAc
Procedure, shortened: as §1

[12] = molecular target: GlcNAc(b1-3)Gal(b1-4)GlcNAc(b1-3)Gal(b1-4)GlcNAc(b1-3)Gal(b1-4)GlcNAc(b1-3)Gal(b1-4)GlcNAc(b1-2)Man(a1-3)[GlcNAc(b1-3)Gal(b1-4)GlcNAc(b1-3)Gal(b1-4)GlcNAc(b1-3)Gal(b1-4)GlcNAc(b1-3)Gal(b1-4)GlcNAc(b1-2)Man(a1-6)]Man(b1-4)GlcNAc(b1-4)GlcNAc
Procedure, shortened: as §1

[13] = molecular target: GlcNAc(b1-3)Gal(b1-4)GlcNAc(b1-3)Gal(b1-4)GlcNAc(b1-3)Gal(b1-4)GlcNAc(b1-3)Gal(b1-4)GlcNAc(b1-2)Man(a1-3)[GlcNAc(b1-3)Gal(b1-4)GlcNAc(b1-3)Gal(b1-4)GlcNAc(b1-3)Gal(b1-4)GlcNAc(b1-3)Gal(b1-4)GlcNAc(b1-2)Man(a1-6)]Man(b1-4)GlcNAc(b1-4)[Fuc(a1-6)]GlcNAc
Procedure, shortened: as §1

[14] = molecular target: GlcNAc(b1-3)Gal(b1-4)GlcNAc(b1-3)Gal(b1-4)GlcNAc(b1-3)Gal(b1-4)GlcNAc(b1-3)Gal(b1-4)GlcNAc(b1-2)[GlcNAc(b1-3)Gal(b1-4)GlcNAc(b1-3)Gal(b1-4)GlcNAc(b1-3)Gal(b1-4)GlcNAc(b1-3)Gal(b1-4)GlcNAc(b1-6)]Man(a1-6)[GlcNAc(b1-3)Gal(b1-4)GlcNAc(b1-3)Gal(b1-4)GlcNAc(b1-3)Gal(b1-4)GlcNAc(b1-3)Gal(b1-4)GlcNAc(b1-2)Man(a1-3)]Man(b1-4)GlcNAc(b1-4)[Fuc(a1-6)]GlcNAc
Procedure, shortened: as §1

[15] = molecular target: GlcNAc(b1-3)Gal(b1-4)GlcNAc(b1-3)Gal(b1-4)GlcNAc(b1-3)GalNAc
Procedure, shortened: as §1

[16] = molecular target: GlcNAc(b1-3)Gal(b1-4)GlcNAc(b1-3)GalNAc
Procedure, shortened: as §1

[17] = molecular target: GlcNAc(b1-3)Gal(b1-4)GlcNAc(b1-3)[GlcNAc(b1-3)Gal(b1-4)GlcNAc(b1-3)]GalNAc
Procedure, shortened: as §1

[18] = molecular target: GlcNAc(b1-3)Gal(b1-4)GlcNAc(b1-6)[Gal(b1-3)]GalNAc
Procedure, shortened: as §1

[19] = molecular target: GlcNAc(b1-3)Gal(b1-4)GlcNAc(b1-6)[GlcNAc(b1-3)Gal(b1-3)]GalNAc
Procedure, shortened: as §1

[20] = molecular target: GlcNAc(b1-3)Gal(b1-4)GlcNAc(b1-6)[GlcNAc(b1-3)]Gal(b1-4)GlcNAc
Procedure, shortened: as §1

GlcNAc(b1-3)GalNAc = molecular target: GlcNAc(b1-3)GalNAc
Procedure, shortened: as §1

GlcNAc(b1-3)Man = molecular target: GlcNAc(b1-3)Man
Procedure, shortened: as §1

[21] = molecular target: GlcNAc(b1-3)[GlcNAc(b1-4)][GlcNAc(b1-6)]GlcNAc
Procedure, shortened: as §1

[22] = molecular target: GlcNAc(b1-3)[GlcNAc(b1-6)]Gal(b1-4)GlcNAc
Procedure, shortened: as §1

[23] = molecular target: GlcNAc(b1-3)[GlcNAc(b1-6)]GalNAc
Procedure, shortened: as §1

[24] = molecular target: GlcNAc(b1-4)Gal(b1-4)GlcNAc
Procedure, shortened: as §1

GlcNAc(b1-4)GlcNAc = molecular target: GlcNAc(b1-4)GlcNAc
Procedure, shortened: as §1

[25] = molecular target: GlcNAc(b1-4)GlcNAc(b1-4)GlcNAc
Procedure, shortened: as §1

[26] = molecular target: GlcNAc(b1-4)GlcNAc(b1-4)GlcNAc(b1-4)GlcNAc(b1-4)GlcNAc
Procedure, shortened: as §1

[27] = molecular target: GlcNAc(b1-4)GlcNAc(b1-4)GlcNAc(b1-4)GlcNAc(b1-4)GlcNAc(b1-4)GlcNAc
Procedure, shortened: as §1

[28] = molecular target: GlcNAc(b1-4)[GlcNAc(b1-6)]GalNAc
Procedure, shortened: as §1

[29] = molecular target: GlcNAc(b1-6)Gal(b1-4)GlcNAc
Procedure, shortened: as §1

GlcNAc(b1-6)GalNAc = molecular target: GlcNAc(b1-6)GalNAc
Procedure, shortened: as §1

[30] = molecular target: GlcNAc6S(b1-3)Gal(b1-4)GlcNAc
Procedure, shortened: as §1

Kdn(a2-3)Gal(b1-3)GalNAc = molecular target: Kdn(a2-3)Gal(b1-3)GalNAc
Procedure, shortened: as §1

Kdn(a2-3)Gal(b1-3)GlcNAc = molecular target: Kdn(a2-3)Gal(b1-3)GlcNAc
Procedure, shortened: as §1

B1: PX14375F-bfa-539-21-539 (Bacteroides fragilis) (protein)
chain: EDFLQKDPPSSPSQSVFWQKKSDFESALAGTYSVMYSGVFSQIMPCLDGLTDNAIVQHSEGTYGWAKTIAQGDLTPNQGGFVTDIYGNCYKGIARVHILMEQLDQYTGSDISADEKKFMLAQCKALRGYFYSWLYQCYKEVPVVTQSLDLNTMYQPKATRAEVLNRVMTDYDEAISELPDKLYSDSQTSGRFTVSAVKALKARILLFDAYDSNGKAISSKMEEVLTLLQSIKGYSLAARVRDNFISEKQLASPEIMFSVRFLRPNLTHSMDLYYGAWAVLDPTRNMVDAFECTDGKPWGESPLTVRPDESILYGNDDALKKAERAKMFMNRDRRLYESVNHSMMANFVDDGFKDEEVQVNESNNKGPTGFSALKYVQPTDVTPGYSTVSDADIVVLRYAHVLLMIAEAENEAHGATTTALNAINEVRTRSGQPAIEAGISQDDLRERIRNEWRIETCFEGLRYFQLKRWKLMDKRVNGVEDPAYPGYIKVYKPAFEFFPIPQSEIDKAGGVLKQDPAYE
glycan array binding signal (z-score) (GlcNAc(b1-3)Gal(b1-4)Glc): 0.207 | glycan array binding signal (z-score) [1]: -0.34 | glycan array binding signal (z-score) [2]: -0.631 | glycan array binding signal (z-score) [3]: -0.528 | glycan array binding signal (z-score) [4]: 1.57 | glycan array binding signal (z-score) [5]: -0.132 | glycan array binding signal (z-score) [6]: 0.005 | glycan array binding signal (z-score) [7]: 1.33 | glycan array binding signal (z-score) [8]: 0.838 | glycan array binding signal (z-score) [9]: -0.226 | glycan array binding signal (z-score) [10]: 0.054 | glycan array binding signal (z-score) [11]: 0.248 | glycan array binding signal (z-score) [12]: -0.284 | glycan array binding signal (z-score) [13]: 0.673 | glycan array binding signal (z-score) [14]: -0.072 | glycan array binding signal (z-score) [15]: 0.228 | glycan array binding signal (z-score) [16]: -0.336 | glycan array binding signal (z-score) [17]: 0.54 | glycan array binding signal (z-score) [18]: 0.886 | glycan array binding signal (z-score) [19]: 0.349 | glycan array binding signal (z-score) [20]: -0.811 | glycan array binding signal (z-score) (GlcNAc(b1-3)GalNAc): -0.8 | glycan array binding signal (z-score) (GlcNAc(b1-3)Man): -0.467 | glycan array binding signal (z-score) [21]: 0.067 | glycan array binding signal (z-score) [22]: 0.023 | glycan array binding signal (z-score) [23]: -0.03 | glycan array binding signal (z-score) [24]: -0.102 | glycan array binding signal (z-score) (GlcNAc(b1-4)GlcNAc): -0.51 | glycan array binding signal (z-score) [25]: -0.55 | glycan array binding signal (z-score) [26]: -0.169 | glycan array binding signal (z-score) [27]: -0.189 | glycan array binding signal (z-score) [28]: -0.818 | glycan array binding signal (z-score) [29]: -0.364 | glycan array binding signal (z-score) (GlcNAc(b1-6)GalNAc): -0.342 | glycan array binding signal (z-score) [30]: 0.711 | glycan array binding signal (z-score) (Kdn(a2-3)Gal(b1-3)GalNAc): -0.258 | glycan array binding signal (z-score) (Kdn(a2-3)Gal(b1-3)GlcNAc): -0.782
